Test results reported in patent US20210340205A1 (Novartis, published 2021).

Target: T1, Human GFRAL(ECD)-His (human, UniProt Q6UXV0 20-351)
T1 construct: also called full length GFRAL(ECD)
T1 sequence: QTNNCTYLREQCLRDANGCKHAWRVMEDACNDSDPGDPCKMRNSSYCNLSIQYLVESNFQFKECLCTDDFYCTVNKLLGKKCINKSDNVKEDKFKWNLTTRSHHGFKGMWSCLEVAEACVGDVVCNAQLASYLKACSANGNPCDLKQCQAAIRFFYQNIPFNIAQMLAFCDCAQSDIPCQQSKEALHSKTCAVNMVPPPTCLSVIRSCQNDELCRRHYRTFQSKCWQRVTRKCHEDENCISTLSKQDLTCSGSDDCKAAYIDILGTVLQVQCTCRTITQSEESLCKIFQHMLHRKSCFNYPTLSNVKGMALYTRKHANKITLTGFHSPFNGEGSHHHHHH
Assay: MSD plate assay, cRET(ECD)-Fc coated; biotinylated anti-6xHis mAb and streptavidin sulfo-tag
Description: Methods: To generate soluble GDF15/GFRAL complexes in vitro, recombinant GFRAL(D2D3)-App, GFRAL(ECD)-His, and GFRAL(ECD)-Fc proteins purified in Example 1 were freshly mixed with equimolar amounts of biotinylated His-GDF15 (1250 pM) in DPBS supplemented with 50 μM CaCl₂. The mixtures were incubated at room temperature for 60 min to allow complex formation. The complex made was stable at 4° C. and was used directly for in vitro binding assays against cRET(ECD)-Fc coated on plastic plates without further purification. Three different GDF15/GFRAL ECD complexes were prepared, including His-GDF15(biotin)/GFRAL(D2D3)-App, His-GDF15(biotin)/GFRAL (ECD)-His, and His-GDF15(biotin)/GFRAL (ECD)-Fc in the same manner. […] His-GDF15(L294R) was mixed with GFRAL(ECD)-His to generate a negative control for GDF15/GFRAL/cRET interaction. […]
Methods: Mixtures of purified biotinylated His-GDF15 and GFRAL(ECD)-His or His-GDF15(L294R) and GFRAL(ECD)-His were prepared as described in Example 3. […] Binding of proteins to plates coated with cRET(ECD)-Fc was detected using biotinylated mouse anti-6×His tag monoclonal antibody followed by streptavidin sulfo-tag, and otherwise by methods described in Example 3.

binding result: no binding (tested: 0-5 log 10 pM)
B1: Human cRET(ECD)-Fc (Fc fusion)
chain: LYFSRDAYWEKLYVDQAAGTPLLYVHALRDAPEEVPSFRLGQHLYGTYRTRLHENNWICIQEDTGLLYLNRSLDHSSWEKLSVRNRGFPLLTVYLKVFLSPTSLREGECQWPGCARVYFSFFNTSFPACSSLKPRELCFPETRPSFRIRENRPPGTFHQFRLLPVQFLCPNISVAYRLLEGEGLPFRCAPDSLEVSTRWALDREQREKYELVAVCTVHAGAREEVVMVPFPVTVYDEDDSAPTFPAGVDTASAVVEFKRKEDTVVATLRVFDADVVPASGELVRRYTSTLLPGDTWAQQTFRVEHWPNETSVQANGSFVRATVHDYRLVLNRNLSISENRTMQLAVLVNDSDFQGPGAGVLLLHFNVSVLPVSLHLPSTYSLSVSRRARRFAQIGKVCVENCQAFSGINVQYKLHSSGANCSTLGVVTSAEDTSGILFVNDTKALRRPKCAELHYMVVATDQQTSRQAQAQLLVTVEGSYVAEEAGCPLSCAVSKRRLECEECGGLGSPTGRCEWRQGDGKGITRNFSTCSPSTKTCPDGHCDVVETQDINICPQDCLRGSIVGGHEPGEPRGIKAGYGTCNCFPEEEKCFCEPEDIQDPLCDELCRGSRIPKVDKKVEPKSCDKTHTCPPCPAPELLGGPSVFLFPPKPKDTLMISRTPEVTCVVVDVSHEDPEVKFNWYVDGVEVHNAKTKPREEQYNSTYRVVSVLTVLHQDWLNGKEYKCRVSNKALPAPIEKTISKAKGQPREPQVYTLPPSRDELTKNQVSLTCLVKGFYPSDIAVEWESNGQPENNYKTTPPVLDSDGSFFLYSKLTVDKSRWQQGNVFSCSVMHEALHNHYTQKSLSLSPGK
notes: also called RET-Fc
